How the values were obtained:
human serum albumin = biological target: T1, human serum albumin (human, UniProt P02768); assay: lysate ELISA
T1 construct: also called HSA

mouse serum albumin = biological target: T2, mouse serum albumin (mouse, UniProt P07724 25-608); assay: lysate ELISA and/or Biacore
T2 construct: also called MSA

Chain of mouse serum albumin (P07724 25-608 limits assumed): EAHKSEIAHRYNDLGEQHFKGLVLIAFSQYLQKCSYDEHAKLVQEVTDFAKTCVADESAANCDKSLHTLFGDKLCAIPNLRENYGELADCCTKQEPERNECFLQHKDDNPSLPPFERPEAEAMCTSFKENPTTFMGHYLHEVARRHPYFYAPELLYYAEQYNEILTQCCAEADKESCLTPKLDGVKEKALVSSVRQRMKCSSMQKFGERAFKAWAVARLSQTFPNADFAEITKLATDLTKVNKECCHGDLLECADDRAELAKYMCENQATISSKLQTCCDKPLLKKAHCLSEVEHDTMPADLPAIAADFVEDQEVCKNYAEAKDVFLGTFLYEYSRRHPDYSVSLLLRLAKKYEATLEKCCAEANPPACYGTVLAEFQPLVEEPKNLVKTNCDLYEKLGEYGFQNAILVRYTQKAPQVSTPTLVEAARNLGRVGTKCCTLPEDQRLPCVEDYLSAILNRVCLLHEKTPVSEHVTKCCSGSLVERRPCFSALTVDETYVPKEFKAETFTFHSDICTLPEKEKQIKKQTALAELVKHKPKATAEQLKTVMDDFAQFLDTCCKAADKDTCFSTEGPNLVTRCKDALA

Binder	binding result (human serum albumin)	binding result (mouse serum albumin)
SEQ ID NO 342 (designed binder, myc-His tagged) GVTLFVALYDYVSNTGFDLSFHKGEKFQILQNLWTGDWWEARSLTTGETGYIPSNYVAPVDSIQ	binds	binds
SEQ ID NO 343 (designed binder, myc-His tagged) GVTLFVALYDYTASYGYDLSFHKGEKFQILDDIWTGDWWEARSLTTGETGYIPSNYVAPVDSIQ	binds	binds
SEQ ID NO 344 (designed binder, myc-His tagged) GVTLFVALYDYLRRNSPDLSFHKGEKFQILQNLWTGDWWEARSLTTGETGYIPSNYVAPVDSIQ	binds	binds
SEQ ID NO 345 (designed binder, myc-His tagged) GVTLFVALYDYHAHLGYDLSFHKGEKFQILQDLWTGALWRARSLTTGRMGSIPSNYVAPVDSIQ	binds	binds
SEQ ID NO 346 (designed binder, myc-His tagged) GVTLFVALYDYQSRHGFDLSFHKGEKFQILQNLWTGEWWEARSLTTGETGYIPSNYVAPVDSIQ	binds	binds
SEQ ID NO 347 (designed binder, myc-His tagged) GVTLFVALYDYQSRHGFDLSFHKGEKFQILQNLWTGSWWEARSLTTGETGYIPSNYVAPVDSIQ	binds	binds
SEQ ID NO 348 (designed binder, myc-His tagged) GVTLFVALYDYQSRHGFDLSFHKGEKFQILQNLWTGKWWEARSLTTGETGYIPSNYVAPVDSIQ	binds	binds
SEQ ID NO 349 (designed binder, myc-His tagged) GVTLFVALYDYEKQHAWDLSFHKGEKFQILQNLWTGDWWEARSLTTGETGYIPSNYVAPVDSIQ	binds	binds
SEQ ID NO 350 (designed binder, myc-His tagged) GVTLFVALYDYRSSYEWDLSFHKGEKFQILQNLWTGDWWEARSLTTGETGYIPSNYVAPVDSIQ	binds	binds
SEQ ID NO 351 (designed binder, myc-His tagged) GVTLFVALYDYQSRHGFDLSFHKGEKFQILQNLWTGNWWEARSLTTGETGYIPSNYVAPVDSIQ	binds	binds
SEQ ID NO 352 (designed binder, myc-His tagged) GVTLFVALYDYHAHLGYDLSFHKGEKFQILQNLWTGDWWEARSLTTGETGYIPSNYVAPVDSIQ	binds	binds
SEQ ID NO 353 (designed binder, myc-His tagged) GVTLFVALYDYGNFRWRDLSFHKGEKFQILQNLWTGDWWEARSLTTGETGYIPSNYVAPVDSIQ	binds	binds
SEQ ID NO 354 (designed binder, myc-His tagged) GVTLFVALYDYQSRHGFDLSFHKGEKFQILQNLWTGWGWVARSLTTGLSGYIPSNYVAPVDSIQ	binds	binds
SEQ ID NO 355 (designed binder, myc-His tagged) GVTLFVALYDYTSMRGYDLSFHKGEKFQILQDLWTGDWWEARSLTTGETGYIPSNYVAPVDSIQ	binds	binds
SEQ ID NO 356 (designed binder, myc-His tagged) GVTLFVALYDYQSKHGYDLSFHKGEKFQILQDLWTGDWWEARSLTTGETGYIPSNYVAPVDSIQ	binds	binds
SEQ ID NO 357 (designed binder, myc-His tagged) GVTLFVALYDYLMKTLADLSFHKGEKFQILQDLWTGDWWEARSLTTGETGYIPSNYVAPVDSIQ	binds	binds
SEQ ID NO 358 (designed binder, myc-His tagged) GVTLFVALYDYTLRQWKDLSFHKGEKFQILQNLWTGDWWEARSLTTGETGYIPSNYVAPVDSIQ	binds	binds
SEQ ID NO 359 (designed binder, myc-His tagged) GVTLFVALYDYERQHGFDLSFHKGEKFQILQNLWTGDWWEARSLTTGETGYIPSNYVAPVDSIQ	binds	binds
SEQ ID NO 360 (designed binder, myc-His tagged) GVTLFVALYDYESRHGYDLSFHKGEKFQILQNLWTGDWWEARSLTTGETGYIPSNYVAPVDSIQ	binds	binds
SEQ ID NO 361 (designed binder, myc-His tagged) GVTLFVALYDYQSKQGFDLSFHKGEKFQILQNLWTGDWWEARSLTTGETGYIPSNYVAPVDSIQ	binds	binds
